{"source": "paper PMC9911399", "about": "“Two distinct binding modes provide the RNA-binding protein RbFox with extraordinary sequence specificity”", "binders": {"B1": {"name": "UAUUGUC (DNA:RNA)", "RNA": "GGGAGACCGGAAUUCAGAUUGUCCUAUUGUCUUAAAUCCCGUCGUAGCCACCA", "DNA 1": "CAATCTGAATTCCGGTCTCCC", "DNA 2": "TGGTGGCTACGACGGGATT"}, "B2": {"name": "AACCCAA (DNA:RNA)", "RNA": "B1 RNA with U25A, U27C, U28C, G29C, U30A, C31A", "DNA 1": "CAATCTGAATTCCGGTCTCCC", "DNA 2": "TGGTGGCTACGACGGGATT"}, "B3": {"name": "GGCGCUA (DNA:RNA)", "RNA": "B1 RNA with U25G, A26G, U27C, U28G, G29C, C31A", "DNA 1": "CAATCTGAATTCCGGTCTCCC", "DNA 2": "TGGTGGCTACGACGGGATT"}, "B4": {"name": "CUAUCGG (DNA:RNA)", "RNA": "B1 RNA with U25C, A26U, U27A, G29C, U30G, C31G", "DNA 1": "CAATCTGAATTCCGGTCTCCC", "DNA 2": "TGGTGGCTACGACGGGATT"}, "B5": {"name": "UCAGACC (DNA:RNA)", "RNA": "B1 RNA with A26C, U27A, U28G, G29A, U30C", "DNA 1": "CAATCTGAATTCCGGTCTCCC", "DNA 2": "TGGTGGCTACGACGGGATT"}, "B6": {"name": "AUGUACG (DNA:RNA)", "RNA": "B1 RNA with U25A, A26U, U27G, G29A, U30C, C31G", "DNA 1": "CAATCTGAATTCCGGTCTCCC", "DNA 2": "TGGTGGCTACGACGGGATT"}, "B7": {"name": "AAGCUAC (DNA:RNA)", "RNA": "B1 RNA with U25A, U27G, U28C, G29U, U30A", "DNA 1": "CAATCTGAATTCCGGTCTCCC", "DNA 2": "TGGTGGCTACGACGGGATT"}, "B8": {"name": "AUCGGAG (DNA:RNA)", "RNA": "B1 RNA with U25A, A26U, U27C, U28G, U30A, C31G", "DNA 1": "CAATCTGAATTCCGGTCTCCC", "DNA 2": "TGGTGGCTACGACGGGATT"}, "B9": {"name": "CACAAAU (DNA:RNA)", "RNA": "B1 RNA with U25C, U27C, U28A, G29A, U30A, C31U", "DNA 1": "CAATCTGAATTCCGGTCTCCC", "DNA 2": "TGGTGGCTACGACGGGATT"}, "B10": {"name": "GGAGCGU (DNA:RNA)", "RNA": "GGGAGACCGGAAUUCAGAUUGUCCGGAGCGUUUAAAUCCCGUCGUAGCCACCA", "DNA 1": "CAATCTGAATTCCGGTCTCCC", "DNA 2": "TGGTGGCTACGACGGGATT"}, "B11": {"name": "AACAGGC (DNA:RNA)", "RNA": "B1 RNA with U25A, U27C, U28A, U30G", "DNA 1": "CAATCTGAATTCCGGTCTCCC", "DNA 2": "TGGTGGCTACGACGGGATT"}, "B12": {"name": "AAGUAUC (DNA:RNA)", "RNA": "B1 RNA with U25A, U27G, G29A", "DNA 1": "CAATCTGAATTCCGGTCTCCC", "DNA 2": "TGGTGGCTACGACGGGATT"}, "B13": {"name": "GGCGAUA (DNA:RNA)", "RNA": "B10 RNA with A27C, C29A, G30U, U31A", "DNA 1": "CAATCTGAATTCCGGTCTCCC", "DNA 2": "TGGTGGCTACGACGGGATT"}, "B14": {"name": "AGUCAGU (DNA:RNA)", "RNA": "B10 RNA with G25A, A27U, G28C, C29A", "DNA 1": "CAATCTGAATTCCGGTCTCCC", "DNA 2": "TGGTGGCTACGACGGGATT"}, "B15": {"name": "UCAUUGG (DNA:RNA)", "RNA": "B10 RNA with G25U, G26C, G28U, C29U, U31G", "DNA 1": "CAATCTGAATTCCGGTCTCCC", "DNA 2": "TGGTGGCTACGACGGGATT"}, "B16": {"name": "CGCGGCA (DNA:RNA)", "RNA": "B10 RNA with G25C, A27C, C29G, G30C, U31A", "DNA 1": "CAATCTGAATTCCGGTCTCCC", "DNA 2": "TGGTGGCTACGACGGGATT"}, "B17": {"name": "CAGAACU (DNA:RNA)", "RNA": "B10 RNA with G25C, G26A, A27G, G28A, C29A, G30C", "DNA 1": "CAATCTGAATTCCGGTCTCCC", "DNA 2": "TGGTGGCTACGACGGGATT"}, "B18": {"name": "AGAGGUG (DNA:RNA)", "RNA": "B10 RNA with G25A, C29G, G30U, U31G", "DNA 1": "CAATCTGAATTCCGGTCTCCC", "DNA 2": "TGGTGGCTACGACGGGATT"}, "B19": {"name": "CUUGGGU (DNA:RNA)", "RNA": "B10 RNA with G25C, G26U, A27U, C29G", "DNA 1": "CAATCTGAATTCCGGTCTCCC", "DNA 2": "TGGTGGCTACGACGGGATT"}, "B20": {"name": "AGACAUU (DNA:RNA)", "RNA": "B10 RNA with G25A, G28C, C29A, G30U", "DNA 1": "CAATCTGAATTCCGGTCTCCC", "DNA 2": "TGGTGGCTACGACGGGATT"}, "B21": {"name": "GGUCGUA (DNA:RNA)", "RNA": "B1 RNA with U25G, A26G, U28C, C31A", "DNA 1": "CAATCTGAATTCCGGTCTCCC", "DNA 2": "TGGTGGCTACGACGGGATT"}, "B22": {"name": "UGGAUUU (DNA:RNA)", "RNA": "B10 RNA with G25U, A27G, G28A, C29U, G30U", "DNA 1": "CAATCTGAATTCCGGTCTCCC", "DNA 2": "TGGTGGCTACGACGGGATT"}, "B23": {"name": "UAUAAUC (DNA:RNA)", "RNA": "B1 RNA with U28A, G29A", "DNA 1": "CAATCTGAATTCCGGTCTCCC", "DNA 2": "TGGTGGCTACGACGGGATT"}, "B24": {"name": "AGUUCAC (DNA:RNA)", "RNA": "B1 RNA with U25A, A26G, G29C, U30A", "DNA 1": "CAATCTGAATTCCGGTCTCCC", "DNA 2": "TGGTGGCTACGACGGGATT"}, "B25": {"name": "GCACAGG (DNA:RNA)", "RNA": "B10 RNA with G26C, G28C, C29A, U31G", "DNA 1": "CAATCTGAATTCCGGTCTCCC", "DNA 2": "TGGTGGCTACGACGGGATT"}, "B26": {"name": "GAGGCUU (DNA:RNA)", "RNA": "B10 RNA with G26A, A27G, G30U", "DNA 1": "CAATCTGAATTCCGGTCTCCC", "DNA 2": "TGGTGGCTACGACGGGATT"}, "B27": {"name": "AAAAUGC (DNA:RNA)", "RNA": "B10 RNA with G25A, G26A, G28A, C29U, U31C", "DNA 1": "CAATCTGAATTCCGGTCTCCC", "DNA 2": "TGGTGGCTACGACGGGATT"}, "B28": {"name": "GAGCCUC (DNA:RNA)", "RNA": "B1 RNA with U25G, U27G, U28C, G29C", "DNA 1": "CAATCTGAATTCCGGTCTCCC", "DNA 2": "TGGTGGCTACGACGGGATT"}, "B29": {"name": "UGCACGC (DNA:RNA)", "RNA": "B10 RNA with G25U, A27C, G28A, U31C", "DNA 1": "CAATCTGAATTCCGGTCTCCC", "DNA 2": "TGGTGGCTACGACGGGATT"}, "B30": {"name": "AUCUUUG (DNA:RNA)", "RNA": "B1 RNA with U25A, A26U, U27C, G29U, C31G", "DNA 1": "CAATCTGAATTCCGGTCTCCC", "DNA 2": "TGGTGGCTACGACGGGATT"}, "B31": {"name": "ACCCGUG (DNA:RNA)", "RNA": "B1 RNA with U25A, A26C, U27C, U28C, C31G", "DNA 1": "CAATCTGAATTCCGGTCTCCC", "DNA 2": "TGGTGGCTACGACGGGATT"}}, "note": "Changes are numbered by the printed parent chain; changes in the protein carry UniProt numbers. The list shows a part of the results.", "data": [{"biological_target": "T1, RBFOX1 RRM (Homo sapiens, UniProt Q9NWB1 109-208)", "T1 sequence": "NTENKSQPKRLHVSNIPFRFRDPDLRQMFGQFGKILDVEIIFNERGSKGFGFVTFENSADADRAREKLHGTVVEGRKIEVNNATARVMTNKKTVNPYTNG", "experiment": "EMSA; HiTS-Eq, 1 nM pool, 10 min; buffer printed only for the single-RNA assays: 10 mM Tris pH 7.5, 150 mM NaCl, 3.4 mM EDTA, 0.001% NP-40, 30 C", "details": "tags: His6 N-terminal (pET28a); label: 5' 32P", "outline": "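Purified RbFox RRM (wild type or mutant) was equilibrated for 10 min in 50 µL with 1 nM of a 5′-radiolabelled pool of RNA with 7 randomized nucleotides, its flanks annealed to DNA oligonucleotides, across increasing protein concentrations. Free RNA was separated by 8% native PAGE, excised, reverse-transcribed, PCR-barcoded and sequenced on an Illumina HiSeq 2500. Relative association constants came from read-count changes of each variant against the control reaction, normalised to the cognate motif.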", "values": [{"binder": "B1", "binding signal": "0.0146 KA relative to UGCAUGU"}, {"binder": "B2", "binding signal": "0.000805 KA relative to UGCAUGU"}, {"binder": "B3", "binding signal": "0.00672 KA relative to UGCAUGU"}, {"binder": "B4", "binding signal": "0.00622 KA relative to UGCAUGU"}, {"binder": "B5", "binding signal": "0.00454 KA relative to UGCAUGU"}, {"binder": "B6", "binding signal": "0.00949 KA relative to UGCAUGU"}, {"binder": "B7", "binding signal": "0.00816 KA relative to UGCAUGU"}, {"binder": "B8", "binding signal": "0.00272 KA relative to UGCAUGU"}, {"binder": "B9", "binding signal": "0.000307 KA relative to UGCAUGU"}, {"binder": "B10", "binding signal": "0.0147 KA relative to UGCAUGU"}, {"binder": "B11", "binding signal": "0.00461 KA relative to UGCAUGU"}, {"binder": "B12", "binding signal": "0.00804 KA relative to UGCAUGU"}, {"binder": "B13", "binding signal": "0.00786 KA relative to UGCAUGU"}, {"binder": "B14", "binding signal": "0.0114 KA relative to UGCAUGU"}, {"binder": "B15", "binding signal": "0.014 KA relative to UGCAUGU"}, {"binder": "B16", "binding signal": "0.0201 KA relative to UGCAUGU"}, {"binder": "B17", "binding signal": "0.00206 KA relative to UGCAUGU"}, {"binder": "B18", "binding signal": "0.014 KA relative to UGCAUGU"}, {"binder": "B19", "binding signal": "0.00576 KA relative to UGCAUGU"}, {"binder": "B20", "binding signal": "0.0042 KA relative to UGCAUGU"}, {"binder": "B21", "binding signal": "0.00477 KA relative to UGCAUGU"}, {"binder": "B22", "binding signal": "0.0242 KA relative to UGCAUGU"}, {"binder": "B23", "binding signal": "0.00662 KA relative to UGCAUGU"}, {"binder": "B24", "binding signal": "0.00392 KA relative to UGCAUGU"}, {"binder": "B25", "binding signal": "0.0133 KA relative to UGCAUGU"}, {"binder": "B26", "binding signal": "0.0186 KA relative to UGCAUGU"}, {"binder": "B27", "binding signal": "0.00522 KA relative to UGCAUGU"}, {"binder": "B28", "binding signal": "0.00995 KA relative to UGCAUGU"}, {"binder": "B29", "binding signal": "0.252 KA relative to UGCAUGU"}, {"binder": "B30", "binding signal": "0.015 KA relative to UGCAUGU"}, {"binder": "B31", "binding signal": "0.00418 KA relative to UGCAUGU"}]}]}
